{"source": "PubChem BioAssay AID485281", "about": "(National Center for Advancing Translational Sciences (NCATS), 2010)", "note": "The whole screen tested about 350,000 compounds, of which about 260 (0.074%) were called active. The inconclusive results got no clear call from the source; some entries with a clear call stand among them for comparison. Calls follow the shape of the dose curve; as a rule, active = well fitted inhibition curve with a large enough effect; inconclusive = small, poorly fitted or top-dose-only effect; inactive = no such curve, though single readings can be large or run the other way. Potencies of inconclusive entries are doubtful fits and often do not repeat. % is scaled to controls: 0 for no effect and ±100 for the full control effect; potency is read from the fitted curve at half-maximal effect; tags tell the direction and shape of the fitted curve.", "data": [{"biological_target": "Ferritin light chain (Equus caballus) (UniProt P02791)", "sequence (P02791 whole entry, looked up)": "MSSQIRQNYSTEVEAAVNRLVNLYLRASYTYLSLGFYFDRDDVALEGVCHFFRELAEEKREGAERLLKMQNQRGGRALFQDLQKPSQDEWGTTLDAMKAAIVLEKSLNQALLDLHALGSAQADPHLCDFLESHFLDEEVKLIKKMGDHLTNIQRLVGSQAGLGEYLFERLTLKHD", "assay": "qHTS Assay for Identification of Novel General Anesthetics; also: nearly all actives have a fitted effect of over 20% in size", "settings": "apoferritin/1-aminoanthracene competitive binding, fluorescence; activity change, negative = displacement: at 77.5 µM (top of the series)", "in_short": "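Concentration-response curves derived by four-parameter Hill fitting of normalized fluorescence, where compounds displaced 1-AMA from 10 uM horse apoferritin following a brief 10 min room-temperature incubation; propofol titration acted as positive control.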", "values": [{"smiles": "O=C(O)CSc1nnc(COc2cccc3cccnc23)n1-c1cccc(C(F)(F)F)c1", "activity change, negative = displacement": "inactive: -1.31%"}, {"smiles": "COc1ccc2nc(C)cc(SCC(=O)NNC(=O)COc3cccc4ccccc34)c2c1", "Potency": "inconclusive: 5.01 µM [inhibitor, full curve]"}, {"smiles": "COc1ccc(CCn2c(=N)c(C(=O)NCc3ccco3)cc3c(=O)n4cccc(C)c4nc32)cc1", "Potency": "inconclusive: 11.2 µM [inhibitor, partial curve]"}, {"smiles": "S=C(NCCc1ccccc1)N1CCN(Cc2ccc(Cl)c(Cl)c2)CC1", "activity change, negative = displacement": "inactive: -6.54%"}, {"smiles": "COC(=O)c1sc(NC(=O)C(C)C)c(C(=O)OC)c1C", "Potency": "inconclusive: 50.1 µM [inhibitor, single point]"}, {"smiles": "CCOc1c(OC(C)=O)ccc(/C=C/c2ccc3cccc(OC(C)=O)c3n2)c1[N+](=O)[O-]", "Potency": "inconclusive: 35.5 µM [inhibitor, partial curve]"}, {"smiles": "COc1cccc(C(=O)NC(=S)Nc2ccccc2N2CCCCC2)c1", "Potency": "inconclusive: 14.1 µM [inhibitor, partial curve]"}, {"smiles": "COC(=O)CC1=C(C)C(=O)CC2C(C)(C)CCCC12C", "note": "(configuration not stated)", "Potency": "inconclusive: 14.1 µM [inhibitor, partial curve]"}, {"smiles": "O/N=C/c1nc2cc(Cl)ccc2o1", "Potency": "inconclusive: 25.1 µM [inhibitor, partial curve]"}, {"smiles": "Cc1ccc(C(=O)C(C)Oc2ccc3ccc(=O)oc3c2)cc1", "note": "(configuration not stated)", "Potency": "inconclusive: 25.1 µM [inhibitor, partial curve]"}, {"smiles": "CCOc1ccc(S(=O)(=O)N2CCN(c3ccccc3OC)CC2)c2cccnc12", "Potency": "inconclusive: 31.6 µM [inhibitor, partial curve]"}, {"smiles": "O=C(CCCc1nc2ccccc2s1)N1CCN(c2ccccc2)CC1", "activity change, negative = displacement": "inactive: -18.8%"}, {"smiles": "CN=C1S/C(=C\\c2ccc(O)c(Br)c2)C(=O)N1C", "activity change, negative = displacement": "inactive: -1.66%"}, {"smiles": "O=[N+]([O-])c1cccnc1SCc1c(F)cccc1Cl", "Potency": "inconclusive: 56.2 µM [inhibitor, single point]"}, {"smiles": "CCOC(=O)CSc1ccc2nnc(-c3cccnc3)n2n1", "activity change, negative = displacement": "inactive: 2.54%"}, {"smiles": "Cc1ccc(-c2cc(C(=O)N3CCC(C)CC3)c3ccccc3n2)cc1", "Potency": "inconclusive: 35.5 µM [inhibitor, partial curve]"}, {"smiles": "CN1CCN(C2=Cc3ccc(Cl)cc3Sc3ccc(F)cc32)CC1", "activity change, negative = displacement": "inactive: -1.91%"}, {"smiles": "CC1CCCCC1NC(=O)COCc1cc(-c2cccs2)on1", "note": "(configuration not stated)", "Potency": "inconclusive: 28.2 µM [inhibitor, partial curve]"}, {"smiles": "Cc1ccc(C)c(N2CCN(C(=O)C3CCN(S(=O)(=O)c4cccc5nsnc45)CC3)CC2)c1", "Potency": "inconclusive: 25.1 µM [inhibitor, partial curve]"}, {"smiles": "COc1cccc(-c2nc(N3CC(C)CC(C)C3)c3ccccc3n2)c1O", "note": "(configuration not stated)", "Potency": "inconclusive: 3.98 µM [inhibitor, full curve, poor fit]"}, {"smiles": "Cc1cc(OCCOc2cccc3cccnc23)cc(C)c1Cl", "Potency": "inconclusive: 50.1 µM [inhibitor, partial curve]"}, {"smiles": "CCCCOc1ccc(C(=O)NCCc2csc(-c3ccc(OC)cc3)n2)cc1", "activity change, negative = displacement": "inactive: 2.91%"}, {"smiles": "COc1ccc(N(CC(=O)Nc2c(C)cccc2C)S(=O)(=O)c2ccccc2[N+](=O)[O-])c(OC)c1", "Potency": "inconclusive: 28.2 µM [inhibitor, partial curve]"}, {"smiles": "CN(C)/C=C/C(=O)c1ccc(-n2cccc2)cc1", "activity change, negative = displacement": "inactive: -10.5%"}, {"smiles": "COc1ccc(-c2csc(N3CCOCC3)n2)cc1OC", "Potency": "inconclusive: 35.5 µM [inhibitor, partial curve]"}, {"smiles": "Cc1ccc(C(=O)CSc2nnc(CNc3nc(-c4ccccc4)cs3)n2C)cc1", "Potency": "inconclusive: 0.794 µM [inhibitor, full curve]"}, {"smiles": "O=S(=O)(NCCc1ccccc1)c1ccc(Br)s1", "Potency": "inconclusive: 17.8 µM [inhibitor, partial curve]"}, {"smiles": "CC(C)c1ccc(OCC(=O)Nc2ccc3oc(=O)ccc3c2)cc1", "Potency": "inconclusive: 50.1 µM [inhibitor, single point]"}, {"smiles": "Cc1nc(Nc2cccc(C(C)O)c2)c2nnn(Cc3ccccc3F)c2n1", "note": "(configuration not stated)", "Potency": "inconclusive: 17.8 µM [inhibitor, partial curve]"}, {"smiles": "COc1ccc(Cc2nc3ccc(C(=O)NCC(C)(C)OC)cc3o2)cc1", "activity change, negative = displacement": "inactive: -15.6%"}, {"smiles": "CCc1ccc(OCC(=O)Nc2ccc(Cl)c(-c3nc4ncccc4o3)c2)cc1", "Potency": "inconclusive: 15.8 µM [inhibitor, partial curve]"}, {"smiles": "CCC(=O)Nc1cccc(C(=O)/C=C/c2cc(Br)ccc2OC)c1", "Potency": "inconclusive: 28.2 µM [inhibitor, partial curve]"}, {"smiles": "Cc1ccc(C)c(N(C)S(=O)(=O)c2ccc3[nH]cc(C(=O)NC4CCCC4)c(=O)c3c2)c1", "Potency": "inconclusive: 5.62 µM [inhibitor, full curve, poor fit]"}, {"smiles": "CC1(C)CC2CC(C)(CN2C(=O)COC(=O)c2ccc(Cl)c(N)c2)C1", "note": "(configuration not stated)", "Potency": "inconclusive: 28.2 µM [inhibitor, partial curve]"}, {"smiles": "O=C(COC(=O)c1cccc2c1C(=O)c1ccccc1C2=O)NC1CCCCC1", "Potency": "inconclusive: 50.1 µM [inhibitor, single point]"}, {"smiles": "Cc1cccc(NCC(=O)N/N=C/c2cccc(Br)c2)c1", "Potency": "inconclusive: 28.2 µM [inhibitor, partial curve]"}, {"smiles": "COc1ccc(NC(=O)c2oc3ccccc3c2C)cn1", "Potency": "inconclusive: 14.1 µM [inhibitor, partial curve]"}, {"smiles": "CC(=O)Nc1ccc(NC(=O)c2cc(-c3ccccc3)nc3ccccc23)cc1", "activity change, negative = displacement": "inactive: -12.1%"}, {"smiles": "Cc1ccc(/C=C2\\C(=O)ON=C2c2ccccc2)o1", "activity change, negative = displacement": "inactive: -8.3%"}, {"smiles": "CN(CC(=O)Nc1ccc(F)cc1)C(=O)c1ccc(-c2ccc(Cl)cc2)o1", "Potency": "inconclusive: 39.8 µM [inhibitor, single point]"}, {"smiles": "COc1ccc(/C=N/NS(=O)(=O)c2ccccc2)cc1OS(=O)(=O)c1ccc(C)cc1", "activity change, negative = displacement": "inactive: -17.4%"}, {"smiles": "CCCN1CCCC(c2cccc(S(C)(=O)=O)c2)C1", "note": "(configuration not stated)", "activity change, negative = displacement": "inactive: 12.5%"}, {"smiles": "N=c1c2c(-c3ccccc3)c(-c3ccccc3)oc2ncn1CCN1CCOCC1", "Potency": "inconclusive: 39.8 µM [inhibitor, single point]"}, {"smiles": "Fc1ccc(-c2cc(-c3ccccc3)nc(-n3cccn3)n2)cc1", "Potency": "inconclusive: 20 µM [inhibitor, partial curve]"}, {"smiles": "CC(=O)c1ccc(NC(=O)N2CCc3ccccc3C2)cc1", "Potency": "inconclusive: 35.5 µM [inhibitor, single point]"}, {"smiles": "O=C1C2C(C(=O)N1/N=C/c1cc([N+](=O)[O-])ccc1O)C1C=CC2C12CC2", "note": "(configuration not stated)", "Potency": "inconclusive: 39.8 µM [inhibitor, partial curve]"}, {"smiles": "CCOc1ccc(CNC(=O)CCC(=O)n2ncc3ccc(Cl)cc32)cc1", "Potency": "inconclusive: 35.5 µM [inhibitor, partial curve]"}, {"smiles": "O=C(Cn1cnc2c(nnn2Cc2ccc(F)cc2)c1=O)N1CCCCC1", "Potency": "inconclusive: 28.2 µM [inhibitor, partial curve]"}, {"smiles": "Cc1c(C(=O)C(=O)N2c3ccccc3CC2C)c2ccccc2n1C", "note": "(configuration not stated)", "Potency": "inconclusive: 28.2 µM [inhibitor, partial curve]"}, {"smiles": "COc1cc(-c2cc(-c3ccccc3)nc(SCC(=O)Nc3nccs3)c2C#N)cc(OC)c1OC", "activity change, negative = displacement": "inactive: -17.1%"}, {"smiles": "O=C(COC(=O)Cn1cnc2ccccc2c1=O)NCC12CC3CC(CC(C3)C1)C2", "Potency": "inconclusive: 35.5 µM [inhibitor, partial curve]"}, {"smiles": "O=[N+]([O-])c1ccc(Oc2cccc(F)c2)c2ccncc12", "Potency": "inconclusive: 39.8 µM [inhibitor, partial curve]"}, {"smiles": "CN(C)CCCN(C(=O)c1ccc(S(=O)(=O)N2CCCCCC2)cc1)c1nc2c(F)cccc2s1", "Potency": "inconclusive: 25.1 µM [inhibitor, partial curve]"}, {"smiles": "Cc1ccc(-n2ncc3c(N4CCCCCC4)ncnc32)cc1C", "activity change, negative = displacement": "inactive: -8.62%"}, {"smiles": "CCn1cc(C(=O)N2CCN(c3ccccc3OC)CC2)c(=O)c2cc(S(=O)(=O)N3CCC(C)CC3)ccc21", "activity change, negative = displacement": "inactive: -17.1%"}, {"smiles": "CCN(CC)c1ccc(NC(=O)CSc2nnc(N)s2)cc1C", "Potency": "inconclusive: 56.2 µM [inhibitor, single point]"}, {"smiles": "CC1=C(c2ccc(C)c(C)c2)S(=O)(=O)N=C1N1CCC(C(=O)N2CCCCC2)CC1", "Potency": "inconclusive: 14.1 µM [inhibitor, partial curve]"}, {"smiles": "COc1cc(C(=O)Nc2ccc(OCc3cc(=O)n4cccc(C)c4n3)cc2)cc(OC)c1OC", "Potency": "inconclusive: 3.16 µM [inhibitor, partial curve]"}, {"smiles": "C/C(=N/OC(=O)c1c(-c2c(Cl)cccc2Cl)noc1C)c1cnccn1", "Potency": "inconclusive: 28.2 µM [inhibitor, single point]"}, {"smiles": "O=C(Nc1cccc(Cl)c1)N1CCC(CO)(CCOc2ccccc2)CC1", "Potency": "inconclusive: 28.2 µM [inhibitor, partial curve]"}, {"smiles": "CCN(CC)C(=O)c1sc2c(c1C)c(=O)n(CCc1ccccc1)c(=O)n2Cc1cccc(Cl)c1", "activity change, negative = displacement": "inactive: 99.8%"}, {"smiles": "CN(Cc1cccs1)C(=O)/C=C/c1ccccc1[N+](=O)[O-]", "Potency": "inconclusive: 35.5 µM [inhibitor, partial curve]"}, {"smiles": "CCS(=O)(=O)c1nc(S(=O)(=O)c2ccc(C)cc2)c(N2CCCC(C)C2)s1", "note": "(configuration not stated)", "Potency": "inconclusive: 12.6 µM [inhibitor, partial curve]"}, {"smiles": "COc1ccc(OCCN2CCN(C(=O)c3ccc(OC(F)F)c(OC)c3)CC2)cc1", "activity change, negative = displacement": "inactive: 1.5%"}, {"smiles": "CC(=O)N1N=C(c2ccc(C(C)(C)C)cc2)OC1(C)C", "Potency": "inconclusive: 31.6 µM [inhibitor, single point]"}, {"smiles": "FC(F)(F)c1ccc2c(c1)C1C=CCC1C(c1ccncc1)N2", "note": "(configuration not stated)", "Potency": "inconclusive: 39.8 µM [inhibitor, single point]"}, {"smiles": "Cc1ccc(NC(=O)c2nc(S(=O)(=O)Cc3ccccc3)ncc2Cl)cc1", "Potency": "inconclusive: 12.6 µM [inhibitor, partial curve]"}]}]}
